This note sets out measurements from the RNAGym collection of RNA variant scans (doi:10.1093/nar/gkz1192).

First the molecules themselves.
B1: CPEB3 Ribozyme (parent)
chain: UAACAGGGGGCCACAGCAGAAGCGUUCACGUCGCAGCCCCUGUCAGAUUCUGGUGAAUCUGCGAAUUCUGCUGUAUAUCUC

The source gives no read counts; variants with many changes may rest on few reads.

Variants of B1 are the subject of the data set. The data set is described as follows: self-cleavage, relative activity (ratio to wild type); higher = more cleavage; in vitro, sequencing. The essentials: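 After error-prone PCR and barcoding, CPEB3 ribozyme mutant libraries were transcribed with T7 RNA polymerase at 37°C for 5 hours, then given 15 min with DNase I before an EDTA stop, and they cleaved during both steps. Reverse transcription with template switching preceded Illumina sequencing. Relative activity divides a variant's cleaved/total read fraction by the unmutated ribozyme's. At least 5 reads were required per variant, and three batches were averaged.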
As for U54G A64G U66C, the self-cleavage was 0.19.
For the variant A56G A57G U67G, the self-cleavage was found to be 0.11.
Next, A64G C79G U80C: 1.01; U54C U76A U78C: 1.08; A56G A65G U72G: 0.54.
C59U U60C A65G U72C: the self-cleavage was determined as 0.29.
With U72C U78C U80C, the self-cleavage stood at 1.21.
For A57G U58G G70U, the self-cleavage was found to be 0.1.
C59U U60C A65G U78C: the self-cleavage stood at 0.14.
Next, U60A A64G U67C A75G: 0.3.
Next, U54C U66C U67A U72C A75C U78C: 0.13.
As to U60A G61U U72C, the self-cleavage was found to be 0.35.
As to U67C A75U A77G, the self-cleavage turned out to be 0.34.
In the case of A64G U72A U80G, the self-cleavage was 1.01.
Next, A65G U72A A75G: 0.57; G55C U60C U69C U80C: 0.29.
Consider A64U U67A U72C, for which the self-cleavage worked out at 0.3.
For the variant A64U U67A U72A, the self-cleavage is 0.22.
As for A64U U69C U72C, the self-cleavage amounted to 0.23.
As to U58C U69C A75U C81G, the self-cleavage came to 0.23.
With G55C U58C A65G C68A, the self-cleavage came to 0.08.
In the case of U67C U76C U78C, the self-cleavage worked out at 0.18.
On to U58C A77U U80C, for which the self-cleavage stood at 0.64.
On to G61C A77G U80C, for which the self-cleavage came out at 0.41.
On to U58C U60C U66C U69C, for which the self-cleavage amounted to 0.16.
Then A64G U66C U72C, with 0.37.
Regarding A65G U66C U74C U76C, the self-cleavage turned out to be 0.33.
As for A56G U58A U78C, the self-cleavage came to 0.18.
As for U60C C62U U78C, the self-cleavage is 0.13.
As for U60A A65G C68U, the self-cleavage worked out at 0.31.
Turning to A56U A64U U67C, the self-cleavage came out at 0.1.
For U54C U67C U78C, the self-cleavage came to 0.17.
Then A56U A64G U72A, with 0.34; and G63A U69A U80C, with 0.36.
Consider U60C U69A U78A U80C, for which the self-cleavage came to 0.24.
On to A64G U66C U80C C81U, for which the self-cleavage was found to be 0.25.
Consider A57G U60C A65G, for which the self-cleavage was determined as 0.15.
A57G U67C U69C: the self-cleavage came out at 0.23.
For the variant U60C U66A U69C, the self-cleavage was 0.39.
U74A U76G A77G: the self-cleavage was found to be 1.4.
Turning to U60A A65G U76A, the self-cleavage came out at 0.41.
As for U54C U60C A65U U69C U72A, the self-cleavage came out at 0.24.
With A56G A64C U74C, the self-cleavage was determined as 0.09.
Turning to A56G A65G U67C C68A U74C, the self-cleavage came out at 0.34.
For A57U U67G U72A, the self-cleavage stood at 0.18.
For the variant U67C U74C U78C, the self-cleavage amounted to 0.27.
As for A56G A75G U78C, the self-cleavage is 0.52.
For G61U C79U U80A, the self-cleavage is 0.98.
As to U60G U69A U72C U80A C81U, the self-cleavage was determined as 0.32.
On to U54C U58C A64G, for which the self-cleavage came to 0.15.
Regarding G55U U58A U69A, the self-cleavage stood at 0.17.
Turning to U60C G61U U76C, the self-cleavage amounted to 0.25.
With A56G A57G U60C U69C A75G U76C, the self-cleavage is 0.13.
A56G G63U U78C: the self-cleavage was determined as 1.09.
As to U60G A65G U67C U72A, the self-cleavage worked out at 0.3.
Take U60A C68U G70A U76A: the self-cleavage came to 0.39.
For G61A C62U A65G, the self-cleavage was found to be 0.23.
For the variant U60A U72A A77U, the self-cleavage was 0.81.
In the case of C59A U60A U66C, the self-cleavage came to 0.19.
As for U60A U67A U72C, the self-cleavage is 0.36.
Turning to A56G U72C U76A, the self-cleavage came to 0.69.
In the case of U58A C59A A64U, the self-cleavage came to 0.11.
For A56G U72A U80A, the self-cleavage turned out to be 1.26.
With U54C U74A C79A, the self-cleavage turned out to be 1.29.
Take A57G U69A U72C: the self-cleavage is 0.58.
Next, A56G A57G A64G: 0.3; U54G A56G U60C: 0.25; U58A U72A U78C: 0.17.
For A56G U74G A75U, the self-cleavage is 1.13.
As to C62U U67C U72C A75G, the self-cleavage was found to be 0.27.
Then U66C U72C A75G, with 0.38; and A57G U60A A65G C79U, with 0.34.
Regarding U54G A56U U78C, the self-cleavage stood at 0.33.
Regarding A64U U69G U80C, the self-cleavage stood at 0.42.
For the variant U76C U78G U80C, the self-cleavage is 0.83.
As for U60C C62U U76C, the self-cleavage came to 0.17.
On to U60G A65G U80A, for which the self-cleavage is 0.33.
For A57U G63U U76A, the self-cleavage turned out to be 0.81.
Next, U60A A64U U69C: 0.22; U66C U67A A75U: 0.16.
Then U58C A65G U78C, with 0.18.
With A56C U72A C81U, the self-cleavage is 0.45.
Consider U72C U74C A75U, for which the self-cleavage is 1.26.
Next, C59A U72C U80C: 0.61; A57G U58C U72A: 0.34; A65G U72C U80A: 0.72.
Then U54G A57G G70U, with 0.17; and U66A U69C U80A, with 0.26; and A57G U66C U69A C79A, with 0.23.
Then U67C U69A U80C, with 0.23; and A57G U78A U80C, with 0.75.
In the case of U58C G73A A77G, the self-cleavage was found to be 1.25.
Regarding G63A A75G C81A, the self-cleavage came out at 0.66.
Next, A57C U67A U80A: 0; G55A A57G G61A: 0.27; U67C U72C A75G: 0.15.
For G55A U60A G61U U76A, the self-cleavage worked out at 0.18.
A56G A57U U78C: the self-cleavage is 0.29.
Regarding A56G U60C A75U, the self-cleavage amounted to 0.54.
Then A56G U58G A65G, with 0.17.
On to U69C U72C U80C, for which the self-cleavage turned out to be 0.34.
Then U60A A65C U67C U72G U78C, with 0.3; and U60A A65U U69C U74C, with 0.31; and A57G U69C U76C, with 0.74.
Next, C62A A65U U80A: 0.11; U69C U72C U78C U80G: 0.34.
Take U60A A65G U69C: the self-cleavage was 0.25.
With G73C U78C U80G, the self-cleavage was 1.32.
As for A57G U66C U74C U78C, the self-cleavage is 0.33.
Next, A56G U72C U80C: 1.13; U54C U58C U60C A64U: 0.33.
Consider A56U U72C U80C, for which the self-cleavage is 1.12.
Next, A56U U60C U72C: 0.26.
As for U58C U72C C79U, the self-cleavage was 1.13.
U58C A64G U69C: the self-cleavage worked out at 0.42.
Turning to A56G A64U U72A, the self-cleavage stood at 0.3.
Next, U58C U74C C81U: 1.11.
A56G A57G C62U A64U U74C C79A: the self-cleavage was 0.14.
For U54C U60A G70A U80C, the self-cleavage is 0.26.
Then U66C U69C A77G, with 0.44; and A56G U67A U80A, with 0.74; and A56G A57G U60A, with 0.37.
With U54C U74C U78C, the self-cleavage was found to be 1.13.
For the variant C62U A64U U78C, the self-cleavage came to 0.22.
Regarding U54C U60C C81U, the self-cleavage amounted to 0.61.
Take U54C U67G U74C: the self-cleavage turned out to be 0.42.
For U54C U67C U72A, the self-cleavage stood at 0.16.
Consider U54C U67C U72C, for which the self-cleavage stood at 0.19.
As for A57G U58A U76C U78C, the self-cleavage turned out to be 0.18.
Next, A65G U66G U69C: 0.13.
Take U60C U69A A77U U80C: the self-cleavage amounted to 0.35.
With U58A U69A U72C U76A, the self-cleavage was determined as 0.18.
For A56G C62G U74C, the self-cleavage was determined as 0.23.
For the variant A64G U67A U72A U78A, the self-cleavage stood at 0.23.
Next, U54C U67C U80A: 0.11.
As to U58A C71U A75U, the self-cleavage stood at 0.22.
Next, U60A U66G U67C: 0.45; U58A A64G U66C: 0.24; A57G U60A U78C: 0.35.
Turning to A57G U58C A77G, the self-cleavage came to 0.17.
As for A56G C71G U78A, the self-cleavage amounted to 0.36.
Next, U66A A77U U78A: 0.67.
As for A64U C79A U80A, the self-cleavage is 0.38.
Then A56U U69C U80A, with 0.45; and U58C U66A U67C C71U U72A, with 0.16; and A57G U58A U78A, with 0.15.
Next, C68U U72A U76C: 0.55.
U58A A65G U72A: the self-cleavage is 0.39.
As to A65G U69A U72C, the self-cleavage amounted to 0.44.
Then U69C G70A C71G, with 0.31; and U60C U66C U69C, with 0.43; and U60C A64G U72C, with 0.23.
Next, A56G U60G U69C: 0.27; U72A U76A U78C: 0.67.
On to C62U U67C U76A, for which the self-cleavage was determined as 0.33.
Next, A57C A64U U76C A77U: 0.05; G55U U67C U72C U80C: 0.21; U58C U67C U74A U80C: 0.32.
Then U60C U69C G70A, with 0.42.
Turning to A56G U67C U80C, the self-cleavage worked out at 0.35.
For the variant U58C U76A U80C, the self-cleavage stood at 0.85.
Consider U72C A75G U78A, for which the self-cleavage was determined as 1.3.
Regarding U60C G61A A64U, the self-cleavage was found to be 0.16.
Consider U72G U78C C79U, for which the self-cleavage was determined as 0.96.
Next, G55A U69C U80C: 0.3; G73A A75G U78C: 1.26; A56G U60C U72C: 0.36.
Next, U54C U60A U67C A77U: 0.41.
As for A64G U67A U72C, the self-cleavage was 0.34.
Then A56G A64U U74A U80C, with 0.44; and U58A A65G U69C G73A, with 0.16; and A56G U69C U78A, with 0.63.
Turning to A57G U72A A75G, the self-cleavage turned out to be 1.08.
Next, A56U A64G U80A: 0.55.
Next, U54C U60C A64G C68G U78C: 0.29.
